This note sets out measurements from PubChem BioAssay (NCI).

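Assay format: 96-well plates, 48-hour exposure. At the GI50, growth is halved. At the TGI there is no net growth.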

The test concerns NCI-H322M lung. The experiment in a line: NCI tumour cell line growth inhibition, 48 h.

As to `CN1CCN(c2nc(-c3csc(-c4ccccc4)n3)cc3ccccc23)CC1`, the GI50 was 2670 nM and the TGI was 10200 nM.

For `C=C(C=O)[C@@H]1CC[C@]2(C)[C@H](CC=C3[C@H]4[C@@H](C)[C@H](C)CC[C@]4(C(=O)OC)CC[C@]32C)[C@@]1(C)CCC#N`, the GI50 was 2370 nM and the TGI was 6510 nM.

As for `COc1ccc2c(c1)c(CC(=O)[Se]CCC#N)c(C)n2C(=O)c1ccc(Cl)cc1`, the GI50 was 2360 nM and the TGI came out at 6840 nM.

In the case of `COCCNc1ccc2ncc(C#Cc3cncc(C(=O)Nc4ccc(CN5CCN(C)CC5)c(C(F)(F)F)c4)c3)n2n1`, the GI50 was 190 nM and the TGI was 872 nM.

`C=C(C)[C@@H]1CC[C@]2(COS(C)(=O)=O)CC[C@]3(C)[C@H](CC[C@@H]4[C@@]5(C)CCCNC(C)(C)[C@@H]5CC[C@]43C)[C@@H]12`: the GI50 is 1560 nM and the TGI is 3060 nM.

`COc1cc2c3c(cc4c5c(ccc4c3c1OC)OCO5)N(CCN(C)C)C2=O`: the GI50 is 175 nM and the TGI stood at 971 nM.

With `O=C1C(N2CCN(c3ccccc3)CC2)=C(Cl)C(=O)c2ncccc21`, the GI50 was 15000 nM and the TGI amounted to 28200 nM.

Take `Cc1ccc2c(n1)C(=O)C(Cl)=C(Nc1cccc(C(C)C)c1)C2=O`: the GI50 is 4570 nM and the TGI worked out at 17300 nM.
